# In PubChem BioAssay AID624171 (National Center for Advancing Translational Sciences (NCATS), 2012):
# The campaign covered roughly 410,000 compounds. About 1,200 (0.29%) were called active. Inconclusive means that the source gave no clear call. Such entries were picked first, then a sample of the others. Calls follow the shape of the dose curve; as a rule, active = well fitted activation curve with a large enough effect; inconclusive = small, poorly fitted or top-dose-only effect; inactive = flat fitted curve, though single readings scatter. Where the call is inconclusive, the potency comes from a doubtful curve fit.
# Assay: qHTS of Nrf2 Activators; also: nearly all actives have a fitted effect of over 65% in size; as to activation: % of control where 0% means no effect
# Conditions: AREc32 ARE-luciferase reporter (MCF7-derived line), luminescence, 24 h; activation: at 46.1 µM (top of the series)
# Method in brief: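 Cells of the AREc32 ARE-luciferase line are plated in OPTI-MEM containing 5% FBS and left overnight at 37 deg C. Compounds are pinned in, incubation continues 24 hr, and firefly luciferase signal is then measured.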
# Potency is read from the fitted curve at half-maximal effect; tags tell the direction and shape of the fitted curve.
SMILES,Potency,activation
CN(C)C(CNC(=O)c1cc(-c2ccco2)nc2ccccc12)c1ccccc1 (stereo not drawn),active: 12.6 µM,
CC1CCC(NC(=O)CN2CCC(n3nnc4cc(F)ccc43)CC2)CC1 (stereo not drawn),inactive,
C[C@H](CO)N1C[C@H](C)[C@@H](CN(C)Cc2ccc(C(=O)Nc3ccccc3N)cc2)Oc2c(NC(=O)C3CCCCC3)cccc2C1=O,inactive,
COCCCNC(=S)N1CCN(c2nc(-c3ccccc3)cs2)CC1,inactive,
O=C(CCCC(=O)Nc1cccnc1)Nc1cccnc1,inactive,
O=C1Nc2ccccc2/C1=C/c1ccccc1F,"inconclusive: 2.82 µM [activator, partial curve, poor fit]",
C=C1C(=O)[C@]23C[C@H]1CCC2[C@@]1(C)C(C[C@@H]3O)[C@](C)(C(=O)O)CC[C@@H]1O (stereo partly drawn),"inconclusive: 2.82 µM [activator, full curve, poor fit]",
NC(=O)COC(=O)/C=C/c1ccc2ccccc2n1,active: 15.8 µM,
CCN(CC)C(=O)CSc1nc2ccccc2c(=O)n1Cc1ccco1,inactive,
Clc1cnc(N/N=C/c2ccco2)c(Cl)c1,"inconclusive: 2.82 µM [activator, partial curve, poor fit]",
COc1ccc(/C=C/C(=O)c2ccc(Cl)cc2)c(OC)c1,"inconclusive: 20 µM [activator, single point]",
COc1cccc(S(=O)(=O)N(C)C[C@H]2OCc3cnnn3CCCC(=O)N([C@@H](C)CO)C[C@@H]2C)c1,inactive,
CSc1ncc(Cl)c(C(=O)Nc2ccccc2Br)n1,"inconclusive: 15.8 µM [activator, partial curve, poor fit]",
COc1ccc(NC(=O)/C=C/c2cccc(C(F)(F)F)c2)cn1,"inconclusive: 14.1 µM [activator, partial curve]",
Cc1ccccc1-c1noc(-c2ccccc2F)n1,active: 8.91 µM,
Oc1ccccc1-c1cc(-c2ccc(F)cc2)n[nH]1,"inconclusive: 11.2 µM [activator, partial curve, poor fit]",
Cc1ccc(-c2cc(-c3ccc(F)cc3)n[nH]2)c(O)c1,"inconclusive: 20 µM [activator, partial curve, poor fit]",
Cc1cccc(N2CCN(C(=O)/C=C/c3ccco3)CC2)c1C,"inconclusive: 28.2 µM [activator, single point]",
COc1ccccc1CN1CCN(C2CCN(C(=O)NC(C)C)CC2)C(=O)C1=O,inactive,
Cn1cc([N+](=O)[O-])c(C(=O)Nc2cc(Oc3cccnc3)cc([N+](=O)[O-])c2)n1,"inconclusive: 35.5 µM [activator, single point]",
N/C(=N\OC(=O)c1cccc(Cl)c1)c1ccccn1,"inconclusive: 1.58 µM [activator, partial curve, poor fit]",
C/C(=N\Nc1ccccn1)c1ccc(C#N)cc1,"inconclusive: 17.8 µM [activator, single point]",
CCOC(=O)/C=C/c1ccc2oc3ccccc3c(=O)c2c1,"inconclusive: 14.1 µM [activator, partial curve, poor fit]",
CC(C)(C)c1ccc(C(=O)N2CCN(CCNC(=O)C(=O)NCc3ccc(Cl)cc3)CC2)cc1,inactive,
COc1ccc(NC(=O)Nc2ccc(F)cc2F)cc1,inactive,

SMILES,Potency,activation
CCCCC1S/C(=N/N=C/c2ccco2)NC1=O (stereo not drawn),"inconclusive: 1.26 µM [activator, partial curve, poor fit]",
CSc1cccc(CN2CCC(CO)(Cc3cccc(C(F)(F)F)c3)CC2)c1,inactive,
O=C(c1ccc(S(=O)(=O)Cc2cc(F)ccc2F)c([N+](=O)[O-])c1)N1CCCCC1,"inconclusive: 15.8 µM [activator, single point]",
CC(C)CNc1oc(-c2ccco2)nc1C#N,"inconclusive: 4.47 µM [activator, partial curve]",
Cc1ccc(-c2nonc2NC(=O)c2ccco2)cc1C,inactive,
FC(F)(F)c1cc(Cl)c2nc(-c3ccccc3)cn2c1,"inconclusive: 2.24 µM [activator, full curve, poor fit]",
COc1c(Cl)cnn(-c2ccc(C)cc2)c1=O,"inconclusive: 22.4 µM [activator, single point]",
COc1ccccc1N1C(=O)C(Cl)=C(Nc2ccccc2O)C1=O,active: 12.6 µM,
COC(=O)c1sccc1NC(=O)c1csc2c1CCCC2,active: 11.2 µM,
O=C(CSc1ncnc2c1oc1ccccc12)NCc1ccco1,"inconclusive: 6.31 µM [activator, partial curve, poor fit]",
COC(=O)c1sccc1NC(=O)c1ccc(Br)s1,"inconclusive: 2.51 µM [activator, full curve, poor fit]",
CCC/C(C#Cc1cc(OC)cc(OC)c1)=C1/c2ccccc2C(=O)N1c1ccccc1,"inconclusive: 31.6 µM [activator, single point]",
CCc1nc(N2CCN(C(=O)CCl)CC2)c2c3c(sc2n1)CC(C)CC3 (stereo not drawn),"inconclusive: 17.8 µM [activator, single point]",
CCOc1ccc(OCC)c(Nc2cc(C)nc3nc(-c4ccco4)nn23)c1,inactive,
c1coc(CSSCc2ccco2)c1,"inconclusive: 31.6 µM [activator, single point]",
N#Cc1ncc(Cc2ccccc2)nc1C#N,"inconclusive: 31.6 µM [activator, single point]",
COCCCN(CC(=O)Nc1ccc(N2CCOCC2)cc1)S(=O)(=O)c1ccccc1,inactive,
Cn1cc(CCCC(=O)NCc2ccccc2Cl)c2ccccc21,inactive,
Cc1cc2nc(-c3ccccc3)c(CC3CCCCC3)n2c(C)c1Br,"inconclusive: 20 µM [activator, single point]",
O=C(CCl)NCc1cc(-c2ccc(Cl)cc2)no1,"inconclusive: 11.2 µM [activator, partial curve]",
CN(C(=O)C1CCCC1)C1CCS(=O)(=O)C1 (stereo not drawn),inactive,
Cc1nc2ccc(NC(=O)Cc3cccc(F)c3)cc2s1,inactive,
O=C(OCn1ncc(Cl)c(Cl)c1=O)c1ccccc1Cl,"inconclusive: 3.98 µM [activator, single point]",
CCOC(=O)c1c(NC(=O)/C=C\C(=O)O)sc(C)c1-c1ccccc1,"inconclusive: 35.5 µM [activator, single point]",
O=C(CCn1c(=O)c2cccn2c2ccccc21)Nc1ccc(F)cc1,"inconclusive: 7.08 µM [activator, partial curve, poor fit]",

SMILES,Potency,activation
O=C(OC1CCOC1=O)c1cc(-c2cccs2)nc2ccccc12 (stereo not drawn),inactive,
Cn1c(C(=O)NCCCN2CCCCCC2)cc2c(=O)n(C)c3ccccc3c21,"inconclusive: 20 µM [activator, single point]",
CC(=O)N1N=C(c2ccc(Cl)cc2)CC1c1ccc([N+](=O)[O-])cc1 (stereo not drawn),,inactive: -0.21% [at 9.22 µM]
O=C(Oc1oc(-c2ccco2)nc1C=Nc1ccccc1)c1ccoc1,"inconclusive: 17.8 µM [activator, single point]",
Cc1ccn2c(c1)nc(=S)n2C(=O)c1ccccc1,"inconclusive: 2.51 µM [activator, full curve, poor fit]",
Cc1ncc(CO)c(/C=N/NC(=S)Nc2cccc(Cl)c2)c1O,inactive,
OC(C1=CC(=Cc2ccncc2)c2ccccc21)c1ccncc1 (stereo not drawn),"inconclusive: 22.4 µM [activator, single point]",
Cc1cc(NC(=O)c2cc(Cl)ccc2Cl)ccc1-c1cc2ccccc2oc1=O,inactive,
COC(=O)c1sccc1S(=O)(=O)N(CC(=O)NCc1ccc(C)cc1)c1ccc(C)c(C)c1,inactive,
COc1ccccc1NC1=C(Cl)C(=O)OC1OC(=O)c1ccco1 (stereo not drawn),"inconclusive: 25.1 µM [activator, single point]",
Cc1ccccc1CNCCCSc1ncccn1,inactive,
Cn1c(=S)c2[nH]c(SCC3CCCO3)nc2n(C)c1=O (stereo not drawn),"inconclusive: 15.8 µM [activator, single point]",
O=[N+]([O-])c1ccc(NS(=O)(=O)c2ccc(Cl)c(Cl)c2)cc1,inactive,
C/C(=N\NC(=O)c1ccccc1O)c1cccc(NC(=O)c2ccccc2)c1,"inconclusive: 10 µM [activator, partial curve]",
C=CCNc1nc(Nc2ccc(-c3nc4ccccc4o3)cc2)nc(N2CCOCC2)n1,"inconclusive: 31.6 µM [activator, partial curve, poor fit]",
Cc1ccc(C)c2sc(NC(=O)C3CC3)nc12,active: 11.2 µM,
CCOC(=O)c1ccc(N2C(=O)C(CC(=O)NC)N(CCc3ccc(OC)c(OC)c3)C2=S)cc1 (stereo not drawn),"inconclusive: 17.8 µM [activator, partial curve, poor fit]",
C=C1CCC[C@]2(C)C[C@H]3OC(=O)C(CNCCN(CC)CC)[C@H]3CC12 (stereo partly drawn),"inconclusive: 17.8 µM [activator, partial curve, poor fit]",
COc1ncccc1-c1nnn(-c2ccc(C)cc2)n1,"inconclusive: 12.6 µM [activator, partial curve, poor fit]",
COc1c(Cl)cc(Cl)cc1/C=C/C(=O)c1ccc(NC(=O)c2cccs2)cc1,"inconclusive: 3.16 µM [activator, full curve, poor fit]",
O=C(/C=C/c1ccco1)Nc1nc(-c2ccccn2)cs1,"inconclusive: 3.16 µM [activator, partial curve, poor fit]",
COCCNC(=O)c1nn(-c2ccc(C)cc2)c(=O)n(C)c1=O,inactive,
COC(=O)c1c(NC(=O)/C=C/c2ccco2)sc2c1CCC2,active: 1.41 µM,
